Paper PMC8397727, “The structure of the bacterial DNA segregation ATPase filament reveals the conformational plasticity of ParA upon DNA binding” (Nature Communications, 2021)

Key:
ParA2vc [1] = target: T1, ParA2vc (Vibrio cholerae, UniProt Q9KKJ2); assay: X-ray crystallography, […] Å; assay type: binding; details: co-crystallized with 5 mM ADP and 5 mM MgCl2; Mg in active site; 4 °C; two dimers per asymmetric unit
T1 construct: gene VC_A1115

ParA2vc [2] = target: T1, ParA2vc; assay: cryo-EM helical reconstruction, […] Å; assay type: binding; details: DNA-bound filament (sonicated salmon sperm DNA); about 4 mM ATPγS and MgCl2; 30 °C; active site with Mg

Row | SMILES | X-ray crystallography, 3.2 Å (ParA2vc [1]) | cryo-EM helical reconstruction, 4.5 Å (ParA2vc [2])
1 | Nc1ncnc2c1ncn2[C@@H]1O[C@H](COP(=O)(O)OP(=O)(O)O)[C@@H](O)[C@H]1O [ADP] | Ligand density was observed in the active site of all four molecules | 
2 | Nc1ncnc2c1ncn2[C@@H]1O[C@H](COP(=O)(O)OP(=O)(O)OP(O)(O)=S)[C@@H](O)[C@H]1O [ATPγS] |  | Density for the ATPγS and Mg molecules is also clearly delineated in the active site
